Among all 310,000 compounds or so, about 14,000 (4.5%) showed an effect of 50% or more. Effects have a minus sign here. The list shows a part of the results.
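Further: peak tail current of the secondary pulse compared with the same well before compound.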

In this assay the target is human ether-à-go-go-related gene (hERG) potassium channel (human, UniProt Q12809). Nature of the assay: primary screen, population patch clamp on CHO cells stably expressing hERG.
Chain of human ether-à-go-go-related gene (hERG) potassium channel (Q12809 whole entry, looked up): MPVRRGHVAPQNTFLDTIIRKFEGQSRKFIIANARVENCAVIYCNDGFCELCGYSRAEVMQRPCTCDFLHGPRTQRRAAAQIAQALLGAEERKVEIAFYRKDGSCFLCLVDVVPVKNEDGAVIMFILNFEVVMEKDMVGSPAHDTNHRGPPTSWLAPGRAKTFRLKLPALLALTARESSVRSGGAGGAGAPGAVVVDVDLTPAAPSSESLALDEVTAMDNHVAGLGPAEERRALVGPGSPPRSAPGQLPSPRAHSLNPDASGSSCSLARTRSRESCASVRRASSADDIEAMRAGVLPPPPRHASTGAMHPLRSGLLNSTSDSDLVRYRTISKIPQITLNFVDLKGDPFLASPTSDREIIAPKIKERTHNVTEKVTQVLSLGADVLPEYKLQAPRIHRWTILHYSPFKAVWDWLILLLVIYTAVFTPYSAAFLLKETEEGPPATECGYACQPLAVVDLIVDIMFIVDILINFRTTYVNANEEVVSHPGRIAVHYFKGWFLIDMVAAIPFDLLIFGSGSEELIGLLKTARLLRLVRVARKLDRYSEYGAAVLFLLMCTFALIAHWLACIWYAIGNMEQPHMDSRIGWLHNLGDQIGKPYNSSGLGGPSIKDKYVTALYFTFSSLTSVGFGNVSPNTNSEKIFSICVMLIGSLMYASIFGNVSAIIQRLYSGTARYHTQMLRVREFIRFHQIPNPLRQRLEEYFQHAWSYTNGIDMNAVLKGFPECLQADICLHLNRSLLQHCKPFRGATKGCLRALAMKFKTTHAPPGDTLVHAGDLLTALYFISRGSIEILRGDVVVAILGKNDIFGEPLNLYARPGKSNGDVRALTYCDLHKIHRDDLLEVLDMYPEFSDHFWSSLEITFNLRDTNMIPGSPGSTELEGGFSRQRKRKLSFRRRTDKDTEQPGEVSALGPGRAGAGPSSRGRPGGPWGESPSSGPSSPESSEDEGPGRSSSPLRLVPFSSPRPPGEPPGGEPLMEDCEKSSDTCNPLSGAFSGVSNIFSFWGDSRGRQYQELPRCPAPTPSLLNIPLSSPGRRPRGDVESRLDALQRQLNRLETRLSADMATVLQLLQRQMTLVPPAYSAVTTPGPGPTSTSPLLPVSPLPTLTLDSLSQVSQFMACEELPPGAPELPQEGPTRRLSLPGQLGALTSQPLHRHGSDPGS
For the compound `COc1cc(OC)cc(C(=O)NCC(=O)NC(C)CCc2ccccc2)c1` (stereo not shown), the “hERG current change (%, negative = inhibition) at 10uM” value is recorded as -21.6%.
Then `Cc1ccccc1NS(=O)(=O)c1ccc(C(=O)NCCCN2CCOCC2)cc1`, with 9.08%; and `N#Cc1c(N)c(C(=O)c2ccccc2)n2c1CCC2`, with 18%.
For the compound `CC(O)CNC12CC3CC(CC(C3)C1)C2` (stereo not shown), the “hERG current change (%, negative = inhibition) at 10uM” value was 12%.
`CN(C)c1ccc(/C=C2\SC(=O)N(CCc3nnc(N)s3)C2=O)cc1`: the “hERG current change (%, negative = inhibition) at 10uM” value is recorded as -0.427%.
Regarding `CCCCC(=O)Nc1ccc(NC(=S)NC(=O)c2ccco2)cc1OC`, the “hERG current change (%, negative = inhibition) at 10uM” value is given as -1.48%.
As to `COc1cccc(NC(=O)CN(C)C(=O)CN2C(=O)c3ccc([N+](=O)[O-])cc3C2=O)c1`, the “hERG current change (%, negative = inhibition) at 10uM” value is recorded as -1.51%.
`Cn1c(N)c(N2CCN(c3ccccc3)CC2)c(=O)[nH]c1=O`: the “hERG current change (%, negative = inhibition) at 10uM” value is listed as 19.4%.
In the case of `CCN1CCN(S(=O)(=O)c2ccc(C(=O)Nc3ccccc3)cc2)CC1`, the “hERG current change (%, negative = inhibition) at 10uM” value was -0.152%.
Take `COC(=O)c1c(C)oc(C)c1S(=O)(=O)NCc1ccc(Cl)cc1Cl`: the “hERG current change (%, negative = inhibition) at 10uM” value was -10.5%.
With `Oc1sc(C=Nc2ccc(F)cc2)c2ccccc12` the figure was 16.7%; with `CCCCCN(C(=O)CCC(=O)OCC(=O)c1ccc(C(C)(C)C)cc1)c1c(N)n(CCCC)c(=O)[nH]c1=O`, -33.7%; with `O=C(CSc1nnnn1-c1ccccc1)Nc1ncc(Cc2ccccc2Cl)s1`, 10.3%.
As for `O=C(Nc1ccc2nc3n(c(=O)c2c1)CCCC3)c1ccc(Cl)nc1`, the “hERG current change (%, negative = inhibition) at 10uM” value is on record as -6.33%.
For the compound `CCOC(=O)c1c(NC(=O)Cn2nc(C(F)(F)F)cc2C)sc(C)c1C`, the “hERG current change (%, negative = inhibition) at 10uM” value was 0.402%.
With `Cc1ccc(CNC(=O)CN(C(=O)N2CCN(C)CC2)S(=O)(=O)c2ccc(C)cc2)cc1` the figure was 15.7%.
`Cc1cccc(OCCn2nnc3ccccc32)c1C`: the “hERG current change (%, negative = inhibition) at 10uM” value is listed as 11.3%.
With `COC(=O)c1cc(OC)c(OC)cc1NC(=S)N1CCN(C/C=C/c2ccccc2)CC1` the figure was -8.96%; with `CCCc1nnc(NC(=O)CSc2nnc(-c3ccco3)n2C)s1`, 14.6%; with `COC(=O)C1=C(c2ccccc2)C[C@@H]2CC[C@H]1N2C(=O)N1CCC(O)CC1`, -0.795%.
On to `CCOC(=O)c1cnc2ccc(C)cc2c1Sc1ccccc1C(=O)OC`, for which the “hERG current change (%, negative = inhibition) at 10uM” value was -2.26%.
Consider `COc1ccc(-n2ncc3c(=O)n(CC(=O)N(C(C)C)C(C)C)cnc32)cc1`, for which the “hERG current change (%, negative = inhibition) at 10uM” value stood at 0.562%.
Take `Cc1ccc(S(=O)(=O)N(Cc2cccc(F)c2)C(=O)N2CCN(C)CC2)cc1`: the “hERG current change (%, negative = inhibition) at 10uM” value turned out to be 33.1%.
For the compound `CCSc1nc(N2CCOCC2)c2c(c1C#N)CCCC2`, the “hERG current change (%, negative = inhibition) at 10uM” value is -7.06%.
In the case of `Cn1cc([N+](=O)[O-])c(C(=O)NNC(=O)c2ccc([N+](=O)[O-])cc2)n1`, the “hERG current change (%, negative = inhibition) at 10uM” value was determined as 11.4%.
Consider `Cc1cc(C)n(C(=O)CNc2cccc(Cl)c2C)n1`, for which the “hERG current change (%, negative = inhibition) at 10uM” value is reported as 13.1%.
In the case of `O=C1Nc2ccccc2S/C1=C/NCc1ccccc1Cl`, the “hERG current change (%, negative = inhibition) at 10uM” value is reported as 9.93%.
`O=C1CC(N(C(=O)c2ccco2)c2cccc(Cl)c2)C(=O)N1c1cccc(Cl)c1` (stereo not shown): the “hERG current change (%, negative = inhibition) at 10uM” value is on record as -19.7%.
With `C=CCN(C(=O)Nc1ccccc1)C1CC(=O)N(c2ccc(OC)cc2)C1=O` (stereo not shown) the figure was -5.09%.
Turning to `C=CCSC1=C(C#N)C(c2ccccc2OCC)CC(=O)N1` (stereo not shown), the “hERG current change (%, negative = inhibition) at 10uM” value was -8.03%.
Take `NC(=O)C1(C(N)=O)OC1c1ccccc1` (stereo not shown): the “hERG current change (%, negative = inhibition) at 10uM” value was -0.285%.
With `CN1C(C(=O)NCc2cccc(Br)c2)CC2Cn3c(nc4cc(Cl)c(Cl)cc43)C21` (stereo not shown), the “hERG current change (%, negative = inhibition) at 10uM” value is on record as -75.8%.
As to `O=C(CN1CCN(Cc2ccc(Cl)cc2)C1=O)NCCN1CCCC1`, the “hERG current change (%, negative = inhibition) at 10uM” value is 1.66%.
Turning to `COc1cc(C(=O)Nc2cccc3cccnc23)cc(OC)c1OC`, the “hERG current change (%, negative = inhibition) at 10uM” value was -22.3%.
With `CC(C)CCOP(=O)(c1ccc(N(C)C)cc1)C(O)c1ccccc1F` (stereo not shown) the figure was -4.54%.
With `Cc1nc(NC(C)C(=O)O)c2nc(C)oc2n1` (stereo not shown) the figure was -17.7%.
`CCOC(=O)N1CCN(C(=O)COC(=O)CSc2ccc([N+](=O)[O-])cc2)CC1`: the “hERG current change (%, negative = inhibition) at 10uM” value is on record as -23.3%.
With `CC1=NNC(=O)C1CC(=O)N/N=C/C(Br)=C/c1ccccc1` (stereo not shown), the “hERG current change (%, negative = inhibition) at 10uM” value is 9.09%.
As for `CCC(C)/C(C)=N/NC(=O)c1cn(-c2ccccc2)nc1-c1ccccc1` (stereo not shown), the “hERG current change (%, negative = inhibition) at 10uM” value is recorded as -20.5%.
As to `Cc1cc(CNC(=S)Nc2cccc(Cl)c2Cl)nn1C`, the “hERG current change (%, negative = inhibition) at 10uM” value was determined as 18.7%.
For the compound `CNC(=O)CN(c1cc(OCCOC)c(Cl)cc1Cl)S(=O)(=O)c1ccc(OC)cc1`, the “hERG current change (%, negative = inhibition) at 10uM” value was -14.7%.
`COc1ccc(NC(=O)CSc2ccccc2)cc1S(=O)(=O)N1CCOCC1`: the “hERG current change (%, negative = inhibition) at 10uM” value is -20.9%.
Take `CN1CCN(C(=S)C(=O)Nc2ccc(Br)cc2)CC1`: the “hERG current change (%, negative = inhibition) at 10uM” value is -6.92%.

The values above are taken from publication PMC4336329 (PLoS ONE, 2015).
